# Data: article PMC4336329 (PLoS ONE, 2015)
# Among all 310,000 compounds or so, about 14,000 (4.5%) showed an effect of 50% or more. The effect is printed as a negative number. This is one part of the list.
# Target: human ether-à-go-go-related gene (hERG) potassium channel (human, UniProt Q12809)
# Test: primary screen, population patch clamp on CHO cells stably expressing hERG
# 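Also: peak tail current of the secondary pulse compared with the same well before compound.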
# human ether-à-go-go-related gene (hERG) potassium channel, sequence (Q12809 whole entry, looked up): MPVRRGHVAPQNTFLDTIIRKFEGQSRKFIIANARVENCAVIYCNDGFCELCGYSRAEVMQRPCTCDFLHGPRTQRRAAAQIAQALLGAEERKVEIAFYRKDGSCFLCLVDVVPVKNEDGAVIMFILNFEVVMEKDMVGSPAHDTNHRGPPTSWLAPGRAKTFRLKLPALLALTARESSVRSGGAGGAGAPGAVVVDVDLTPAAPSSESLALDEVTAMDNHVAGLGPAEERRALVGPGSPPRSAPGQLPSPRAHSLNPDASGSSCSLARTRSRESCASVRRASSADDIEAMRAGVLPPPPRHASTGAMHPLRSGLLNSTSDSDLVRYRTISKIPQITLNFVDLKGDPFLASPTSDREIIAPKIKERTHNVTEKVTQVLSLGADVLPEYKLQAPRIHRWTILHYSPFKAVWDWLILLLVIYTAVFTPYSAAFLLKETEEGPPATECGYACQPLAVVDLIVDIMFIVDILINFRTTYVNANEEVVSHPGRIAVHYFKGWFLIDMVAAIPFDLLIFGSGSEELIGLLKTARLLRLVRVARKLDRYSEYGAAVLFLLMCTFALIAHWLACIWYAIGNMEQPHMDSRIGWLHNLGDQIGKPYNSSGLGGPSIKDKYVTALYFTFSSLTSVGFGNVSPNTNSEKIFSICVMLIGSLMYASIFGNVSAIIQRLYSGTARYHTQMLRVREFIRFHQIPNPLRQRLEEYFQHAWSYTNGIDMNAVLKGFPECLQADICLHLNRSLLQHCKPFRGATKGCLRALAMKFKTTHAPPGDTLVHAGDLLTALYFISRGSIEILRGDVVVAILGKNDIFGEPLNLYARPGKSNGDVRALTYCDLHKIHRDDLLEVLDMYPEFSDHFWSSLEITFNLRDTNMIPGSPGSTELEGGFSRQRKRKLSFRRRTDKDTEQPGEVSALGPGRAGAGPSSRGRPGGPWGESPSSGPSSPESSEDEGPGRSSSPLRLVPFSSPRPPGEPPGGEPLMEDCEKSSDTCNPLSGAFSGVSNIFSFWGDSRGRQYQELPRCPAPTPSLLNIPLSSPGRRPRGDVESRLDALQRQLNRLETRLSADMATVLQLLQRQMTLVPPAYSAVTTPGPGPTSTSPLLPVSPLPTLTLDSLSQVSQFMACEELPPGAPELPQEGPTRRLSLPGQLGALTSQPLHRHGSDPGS
row,Compound,"hERG current change (%, negative = inhibition) at 10uM"
1,COCCn1nnnc1C(c1cc2cc(C)ccc2[nH]c1=O)N1CCCCCC1 (stereo not drawn),-0.827%
2,CS(=O)(=O)NN1C(=O)c2ccccc2NC1c1cccs1 (stereo not drawn),0.73%
3,O=C(CC(c1ccccc1)c1ccccc1O)NCCc1ccccc1 (stereo not drawn),12.7%
4,CN(C)S(=O)(=O)c1ccc(NC(=O)COc2ncnc3sccc23)cc1,15.7%
5,Cc1ccc(C(=O)OCC(=O)N(CC(C)C)c2c(N)n(Cc3ccccc3)c(=O)[nH]c2=O)o1,-4.51%
6,CC1=C(C(N)=O)C(c2ccccc2)n2nc(-c3cccc(C)c3)nc2N1 (stereo not drawn),-46.1%
7,C=CCOc1ccc(C=Nc2ccc(Cl)cc2)c(O)c1,8.47%
8,CC1CC(C)CN(C(=O)COc2ccc(-c3nnco3)cc2)C1 (stereo not drawn),1.83%
9,O=C(CCNC(=O)c1ccc(Br)cc1)NCCCSc1ccccc1,-22.4%
10,COc1ccc(/C(C)=N\n2cnnc2)cc1,6.86%
11,CCS(=O)(=O)c1ccc2c(c1)N(S(C)(=O)=O)CC(C(=O)NCc1ccccc1OC)O2 (stereo not drawn),-3.09%
12,C=CCn1c(SCc2nc3ccccc3[nH]2)nnc1-c1ccccn1,-18.7%
13,CCCn1nc(C(=O)NC2CCCCCC2)c2ccccc2c1=O,-19%
14,Nc1cc(S(=O)(=O)C(F)(F)F)ccc1C(=O)O,17.6%
15,COC(=O)CCC(=O)c1ccc(OC)c(Cl)c1,12.2%
16,O=C(NCc1ccncc1)C(=O)Nc1nc2ccccc2s1,9.09%
17,Cc1ccc(N2C(=O)/C(=C/c3ccco3)SC2=S)cc1,16.8%
18,Cc1ccc(C)c(OCCC(=O)OCC(=O)N2CCN(S(=O)(=O)c3ccc(Cl)cc3)CC2)c1,-29.8%
19,N#C/C(=C\c1ccccc1)c1nc2ncccc2[nH]1,7.46%
20,N#Cc1cn(Cc2ccncc2)c(=O)[nH]c1=O,19.9%
21,COc1ccc(NC(=O)c2cc3ccccc3o2)cc1,-0.841%
22,CS(=O)(=O)Nc1nnc(Cc2ccccc2)s1,7.47%
23,O=C(N/N=C/c1ccccc1)c1c(O)c2ccccc2[nH]c1=O,5.86%

row,Compound,"hERG current change (%, negative = inhibition) at 10uM"
1,C=CCOc1ccc(/C=C/C(=O)OCC(=O)NCC2CCCO2)cc1 (stereo not drawn),-16.9%
2,COc1cc(C2c3c(oc4c(C)cc(C)cc4c3=O)C(=O)N2Cc2cccnc2)ccc1O (stereo not drawn),5.03%
3,CC(C)(C)c1ccc(N/N=C(\C#N)S(=O)(=O)C(C)(C)C)cc1,10%
4,Cc1c(/C=N/NC(=O)c2ccc3c(c2)OCO3)cnn1C,8.53%
5,Cc1c(NC(=S)Nc2cccc(Cl)c2)c(=O)n(-c2ccccc2)n1C,10.2%
6,Cc1ccc(C(=O)OCC(=O)Nc2ccc3c(c2)OCO3)cc1S(=O)(=O)N1CCOCC1,1.72%
7,O=C1C2CCCN2C(c2ccccc2F)N1c1ccc(F)cc1 (stereo not drawn),8.24%
8,CNC(=O)c1cc(Nc2nnc(-c3ccc(O)cc3)c3ccccc23)ccc1OC,4.28%
9,C/C(N)=C(/C#N)C(=O)COC(=O)c1cc(S(=O)(=O)N2CCCCC2)ccc1C,5.29%
10,Cc1ccc(C(F)(F)F)cc1NC(N)=S,2.66%
11,CCOc1cccc(=O)c2c(C)n(CC3CCCO3)c(C)c12 (stereo not drawn),-2.39%
12,COc1cc2c(cc1OC)-c1cc(Nc3ccccc3)nc(=O)n1CC2,-64.1%
13,Cn1c(SCC(=O)Nc2ccc3c(c2)oc2ccccc23)nnc1-c1ccccc1,16.1%
14,COc1ccc(N(CC(=O)NC2CCCCC2)S(=O)(=O)c2cccnc2)cc1,-10.5%
15,Cc1ccc(NC(=S)/C(=C(\[O-])c2ccc(F)cc2)[n+]2ccccc2)cc1,9%
16,O=C1C(=O)N(CCN2CCOCC2)C(c2ccc(F)cc2)/C1=C(/O)c1ccc(S(=O)(=O)N2CCOCC2)cc1 (stereo not drawn),23.8%
17,COc1cc(OC)c(NS(=O)(=O)c2ccc(Cl)c(C(=O)OC(C)C(=O)N3CCCC3)c2)cc1Cl (stereo not drawn),-41%
18,O=C(c1ccc(Cl)cc1)N1CCc2c([nH]c3ccccc23)C1C(F)(F)F (stereo not drawn),12.9%
19,Cc1ccc(C)c(N2CCN(C(=O)Cn3ncc4c([nH]c5ccc(C)cc54)c3=O)CC2)c1,13.5%
20,Clc1cccc(Oc2ncccn2)c1,19.1%
21,Cn1cnnc1SCc1ccccc1[N+](=O)[O-],13.7%
22,O=C(COc1cnc2ccccc2n1)NCCC1=CCCCC1,11.3%
23,CCN(C(=O)CSc1nc2nc(C)cc(C)n2n1)C1CCS(=O)(=O)C1 (stereo not drawn),20.5%

row,Compound,"hERG current change (%, negative = inhibition) at 10uM"
1,COC(=O)c1ccc(Cl)c(NC(=O)CN2CCOCC2)c1,2.49%
2,CC1=[N+](C)c2ccc3ccccc3c2C1(C)C,-34.3%
3,Nc1ccccc1NC(=O)NC(=O)c1ccccc1,12.5%
4,COc1ccc(SC[C@H](Cc2ccccc2)N2CCN(CCc3ccccc3)CCC2=O)cc1,-74.6%
5,COC(=O)c1cc(-c2c(C)oc3cc(OC(C)C)ccc3c2=O)c(C)o1,-16.7%
6,OCC1(Cc2ccc(Cl)cc2)CCN(Cc2ccc(Oc3ncccn3)cc2)CC1,-74.1%
7,COc1cccc(NC(=S)N(CCc2c(C)[nH]c3ccccc23)Cc2ccco2)c1,10.7%
8,CCOc1ccc(C(=O)CN2CCN(S(=O)(=O)c3ccc(Cl)cc3)CC2)cc1,-40.2%
9,Cc1nc(SCCO)c2oc3ccccc3c2n1,3.6%
10,CCC(C(=O)OCC(=O)Nc1cccc(OC)c1)c1ccccc1 (stereo not drawn),-1.9%
11,CC(C)NC(=O)C1CC(=O)N(c2ccc(F)c(Cl)c2)C1 (stereo not drawn),7.82%
12,CNCC(O)Cn1c(C(F)(F)F)nc2ccccc21 (stereo not drawn),15.9%
13,O=S(=O)(NCc1ccco1)c1ccc2ccccc2c1,7.32%
14,COC(=O)C1=C(O)/C(=C\c2cc(C)n(-c3ccccc3C)c2C)N=C1C,8.78%
15,CC(C)Oc1ccccc1C(=O)NC(CO)C(=O)O (stereo not drawn),29.1%
16,O=C(C(Cc1ccccc1)N1C(=O)c2ccccc2C1=O)N1c2ccccc2CCc2ccccc21 (stereo not drawn),4.02%
17,COc1cccc2c(C)cc(N3CCCCCC3)nc12,-52.9%
18,CCOC(=O)c1c(NC(=O)CSc2nnc(-c3ccc(OC)cc3)o2)sc2c1CCC2,11.5%
19,CCN(C(=O)COC(=O)c1ccc(=O)n(Cc2ccccc2)n1)C1CCCCC1,9.54%
20,Cc1ccc(-n2c3nc(=O)[nH]c(=O)c-3cc3c(C)nn(-c4ccccc4)c32)c(C)c1,9.98%
21,CC1Cn2c(COc3ccccc3)nnc2S1 (stereo not drawn),5.49%
22,Cc1cccc(-n2c(CNC(=O)c3ccccc3)nnc2SCC(=O)Nc2nccs2)c1,-4.18%
23,COC(=O)c1sccc1NC(=O)c1c(Cl)cccc1Cl,18.1%

row,Compound,"hERG current change (%, negative = inhibition) at 10uM"
1,CCOc1cccc(N)c1,3.39%
2,Cc1nnc(NC(=O)CSc2ccc([N+](=O)[O-])cn2)s1,17.9%
3,CC1=CC(C)C(COC(=O)CN2CCCCC2)C(C)C1 (stereo not drawn),7.6%
4,NS(=O)(=O)c1ccc(N=Nc2c(O)[nH]c(=S)[nH]c2=O)cc1,27.3%
5,Cc1nc(Sc2nnnn2C)c2c3c(sc2n1)CCC3,2.42%
6,COC(=O)c1ccccc1NC(=O)Nc1cc(C)cc(C)n1,1.33%
7,CCOC(=O)C1CCN(c2nc3ccccc3nc2C(C#N)C(=O)OC(C)COC)CC1 (stereo not drawn),-13.9%
8,Cc1nc2ccc(NC(=O)CS(=O)(=O)c3ccccc3)cc2s1,0.463%
9,O=C(Nc1ccc(Cl)cc1)N1CCCN(c2ccc(C(F)(F)F)cc2[N+](=O)[O-])CC1,4.29%
10,N#CC1=C(N)C(C#N)(C#N)C(c2cccnc2)C2CN(C(=O)OCc3ccccc3)CC=C12 (stereo not drawn),-16.6%
11,COc1ccc(N(C(C)C(=O)Nc2ccc(S(=O)(=O)N3CCCCC3)cc2)S(C)(=O)=O)cc1 (stereo not drawn),7.62%
12,COc1ccc(C(CNC(=O)CNC(=O)c2ccccc2Cl)N2CCCC2)cc1 (stereo not drawn),-15.3%
13,CN(CC(=O)Nc1ccccc1Br)C(=O)CCc1ccccc1,14.2%
14,Cc1ccc(S(=O)(=O)N2CC(=O)Nc3ccccc32)cc1C,-12.1%
15,Cc1cc(NC(=O)CSc2nc(-c3ccc(Br)cc3)nc3c2c(=O)n(C)c(=O)n3C)no1,-8.93%
16,Cc1cc(C)cc(Nc2cc(=O)n(C3CCCCC3)c(=O)[nH]2)c1,10.2%
17,CCCOc1ccc(/C=N/O)cc1,8.28%
18,O=S(=O)(Nc1cccc(-c2nnco2)c1)c1ccc(F)cc1F,15.9%
19,CC(=O)NC(CC(=O)NCC(=O)Nc1ccc(F)c(F)c1)c1ccccc1 (stereo not drawn),19.6%
20,O=C(c1ccc2c(=O)n(Cc3ccc4c(c3)OCO4)c(=S)[nH]c2c1)N1CCC2(CC1)OCCO2,-13.9%
21,CCCCCOc1ccc(C)cc1CN(CCCl)CCCl.Cl,13.1%
